Our source for the enrichment score values is the supplement of paper PMC10369915.

The list shows a part of the results. Cut-off read from the data, not from the text of the source: active = 3.2 or more and inactive = the rest. Only a few entries rise above the background.
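Note: displayed peptides selected on beads carrying the immobilized SH2 domain, with library peptides lacking any tyrosine serving as negative controls.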

The target in one experiment is SHP2 C-SH2 domain E139D. Briefly: enrichment score (SH2-bound / input frequency) (ratio); bacterial display of known human phosphotyrosine sites (pTyr-Var adds point mutants) read by sequencing; higher = stronger binding; tyrosines were phosphorylated by kinases first. Particulars: peptide library: pTyr-Var.
With LNNIIYRVERA [CUX2_Y1470], the enrichment score is inactive: 1.07.

For the molecule KASIMYPSSNC [CXCL11_Y52_N55S], the enrichment score is inactive: 0.651.

As for DTLLEYLENPK [CYCS_Y68_M66L], the enrichment score is inactive: 0.893.

Regarding GPIFRYDSGGA [CYP11B1_Y81_L83S], the enrichment score was inactive: 0.978.

Regarding PFTRNYYVQAV [CYBA_Y87_R90Q], the enrichment score is inactive: 0.844.

For PDSVDYRKKGF [CTSK_Y121_YF], the enrichment score is inactive: 0.566.

Regarding FSKTQYNQVPR [CXADR_Y318_S323R_YF], the enrichment score was inactive: 0.765.

With VKKKLDEEIDQ [CYP17A1_Y329_Y329D], the enrichment score was inactive: 0.666.

As to GQAPGYSFTAA [CYCS_Y47_YF], the enrichment score was inactive: 0.641.

On to PDSVDYRKKGY [CTSK_Y121], for which the enrichment score was inactive: 0.645.

With PFTRNYFVWAV [CYBA_Y87_R90W_YF], the enrichment score is inactive: 1.29.

KASIMYPSNNC [CXCL11_Y52]: the enrichment score is inactive: 0.667.

Consider SERNNYSRVAN [CWC22_Y797], for which the enrichment score is inactive: 0.469.

As to RESYKYFPSSL [CXXC1_Y218], the enrichment score is inactive: 1.05.

With RESFKYLPSSL [CXXC1_Y218_F219L_YF], the enrichment score was inactive: 0.696.

Turning to NRVEIYDKTVE [CYFIP1_Y108_E109D], the enrichment score was inactive: 0.916.

For the molecule PFTRNYFVRAV [CYBA_Y87_YF], the enrichment score was inactive: 0.37.

RWGQKYMTAVV [CYBA_Y72]: the enrichment score was inactive: 2.16.

DTLMEYLENPK [CYCS_Y68]: the enrichment score is inactive: 1.04.

Another experiment concerns the target SHP2 C-SH2 domain wild-type. The description is as above. Particulars: peptide library: pTyr-Var.
For LNNIIYRVERA [CUX2_Y1470], the enrichment score is inactive: 1.19.

In the case of KASIMYPSSNC [CXCL11_Y52_N55S], the enrichment score is inactive: 0.523.

For DTLLEYLENPK [CYCS_Y68_M66L], the enrichment score was inactive: 0.922.

As to GPIFRYDSGGA [CYP11B1_Y81_L83S], the enrichment score was inactive: 0.86.

In the case of PFTRNYYVQAV [CYBA_Y87_R90Q], the enrichment score was inactive: 1.25.

On to PDSVDYRKKGF [CTSK_Y121_YF], for which the enrichment score is inactive: 0.502.

Take FSKTQYNQVPR [CXADR_Y318_S323R_YF]: the enrichment score was inactive: 0.655.

For VKKKLDEEIDQ [CYP17A1_Y329_Y329D], the enrichment score was inactive: 0.588.

Regarding GQAPGYSFTAA [CYCS_Y47_YF], the enrichment score is inactive: 0.562.

Take PDSVDYRKKGY [CTSK_Y121]: the enrichment score was inactive: 0.455.

Turning to PFTRNYFVWAV [CYBA_Y87_R90W_YF], the enrichment score is inactive: 1.57.

For KASIMYPSNNC [CXCL11_Y52], the enrichment score is inactive: 0.737.

As for SERNNYSRVAN [CWC22_Y797], the enrichment score was inactive: 1.15.

As to RESYKYFPSSL [CXXC1_Y218], the enrichment score is inactive: 0.756.

As for RESFKYLPSSL [CXXC1_Y218_F219L_YF], the enrichment score was inactive: 0.83.

For NRVEIYDKTVE [CYFIP1_Y108_E109D], the enrichment score was inactive: 0.812.

As to PFTRNYFVRAV [CYBA_Y87_YF], the enrichment score was inactive: 0.571.

Turning to RWGQKYMTAVV [CYBA_Y72], the enrichment score is inactive: 1.62.

Take DTLMEYLENPK [CYCS_Y68]: the enrichment score was inactive: 0.907.

A further experiment addresses SHP2 N-SH2 domain L43F. The experiment is described as above. To be noted: peptide library: pTyr-Var.
For the molecule LNNIIYRVERA [CUX2_Y1470], the enrichment score was inactive: 0.967.

Regarding KASIMYPSSNC [CXCL11_Y52_N55S], the enrichment score was inactive: 0.634.

On to DTLLEYLENPK [CYCS_Y68_M66L], for which the enrichment score was inactive: 1.2.

For the molecule GPIFRYDSGGA [CYP11B1_Y81_L83S], the enrichment score is inactive: 0.817.

With PFTRNYYVQAV [CYBA_Y87_R90Q], the enrichment score was inactive: 0.805.

For PDSVDYRKKGF [CTSK_Y121_YF], the enrichment score was inactive: 0.427.

Turning to FSKTQYNQVPR [CXADR_Y318_S323R_YF], the enrichment score is inactive: 0.591.

As to VKKKLDEEIDQ [CYP17A1_Y329_Y329D], the enrichment score was inactive: 0.726.

GQAPGYSFTAA [CYCS_Y47_YF]: the enrichment score is inactive: 0.68.

In the case of PDSVDYRKKGY [CTSK_Y121], the enrichment score is inactive: 0.542.

In the case of PFTRNYFVWAV [CYBA_Y87_R90W_YF], the enrichment score was inactive: 1.72.

Consider KASIMYPSNNC [CXCL11_Y52], for which the enrichment score is inactive: 0.755.

Regarding SERNNYSRVAN [CWC22_Y797], the enrichment score is inactive: 0.429.

For the molecule RESYKYFPSSL [CXXC1_Y218], the enrichment score was inactive: 1.06.

Take RESFKYLPSSL [CXXC1_Y218_F219L_YF]: the enrichment score was inactive: 0.801.

Regarding NRVEIYDKTVE [CYFIP1_Y108_E109D], the enrichment score is inactive: 0.868.

As for PFTRNYFVRAV [CYBA_Y87_YF], the enrichment score is inactive: 0.45.

For the molecule RWGQKYMTAVV [CYBA_Y72], the enrichment score was inactive: 1.9.

For DTLMEYLENPK [CYCS_Y68], the enrichment score was inactive: 1.02.

A further experiment deals with SHP2 N-SH2 domain T42A. Described as above. To be noted: peptide library: pTyr-Var.
Consider LNNIIYRVERA [CUX2_Y1470], for which the enrichment score was inactive: 0.939.

In the case of KASIMYPSSNC [CXCL11_Y52_N55S], the enrichment score was inactive: 0.536.

Regarding DTLLEYLENPK [CYCS_Y68_M66L], the enrichment score is inactive: 0.681.

On to GPIFRYDSGGA [CYP11B1_Y81_L83S], for which the enrichment score was inactive: 0.84.

For PFTRNYYVQAV [CYBA_Y87_R90Q], the enrichment score was inactive: 0.567.

PDSVDYRKKGF [CTSK_Y121_YF]: the enrichment score is inactive: 0.683.

With FSKTQYNQVPR [CXADR_Y318_S323R_YF], the enrichment score is inactive: 0.536.

Turning to VKKKLDEEIDQ [CYP17A1_Y329_Y329D], the enrichment score was inactive: 0.679.

GQAPGYSFTAA [CYCS_Y47_YF]: the enrichment score was inactive: 0.555.

PDSVDYRKKGY [CTSK_Y121]: the enrichment score was inactive: 0.475.

For PFTRNYFVWAV [CYBA_Y87_R90W_YF], the enrichment score was inactive: 1.36.

Take KASIMYPSNNC [CXCL11_Y52]: the enrichment score is inactive: 0.535.

Turning to SERNNYSRVAN [CWC22_Y797], the enrichment score is inactive: 0.488.

As to RESYKYFPSSL [CXXC1_Y218], the enrichment score is inactive: 1.17.

RESFKYLPSSL [CXXC1_Y218_F219L_YF]: the enrichment score was inactive: 0.764.

Take NRVEIYDKTVE [CYFIP1_Y108_E109D]: the enrichment score was inactive: 0.846.

For the molecule PFTRNYFVRAV [CYBA_Y87_YF], the enrichment score is inactive: 0.46.

For the molecule RWGQKYMTAVV [CYBA_Y72], the enrichment score is inactive: 1.76.

For the molecule DTLMEYLENPK [CYCS_Y68], the enrichment score is inactive: 0.884.

For another experiment, the target named is SHP2 N-SH2 domain T52S. The experiment is described as above. To be noted: peptide library: pTyr-Var.
For the molecule LNNIIYRVERA [CUX2_Y1470], the enrichment score was inactive: 0.745.

Consider KASIMYPSSNC [CXCL11_Y52_N55S], for which the enrichment score is inactive: 0.59.

For the molecule DTLLEYLENPK [CYCS_Y68_M66L], the enrichment score is inactive: 0.948.

Consider GPIFRYDSGGA [CYP11B1_Y81_L83S], for which the enrichment score was inactive: 0.924.

Turning to PFTRNYYVQAV [CYBA_Y87_R90Q], the enrichment score was inactive: 0.647.

For the molecule PDSVDYRKKGF [CTSK_Y121_YF], the enrichment score is inactive: 0.536.

As for FSKTQYNQVPR [CXADR_Y318_S323R_YF], the enrichment score was inactive: 0.742.

For VKKKLDEEIDQ [CYP17A1_Y329_Y329D], the enrichment score was inactive: 0.802.

In the case of GQAPGYSFTAA [CYCS_Y47_YF], the enrichment score is inactive: 0.51.

Turning to PDSVDYRKKGY [CTSK_Y121], the enrichment score was inactive: 0.318.

Regarding PFTRNYFVWAV [CYBA_Y87_R90W_YF], the enrichment score is inactive: 1.96.

With KASIMYPSNNC [CXCL11_Y52], the enrichment score was inactive: 0.504.

For SERNNYSRVAN [CWC22_Y797], the enrichment score is inactive: 0.468.

For RESYKYFPSSL [CXXC1_Y218], the enrichment score is inactive: 0.983.

With RESFKYLPSSL [CXXC1_Y218_F219L_YF], the enrichment score was inactive: 0.554.

Regarding NRVEIYDKTVE [CYFIP1_Y108_E109D], the enrichment score is inactive: 0.87.

For the molecule PFTRNYFVRAV [CYBA_Y87_YF], the enrichment score was inactive: 0.569.

On to RWGQKYMTAVV [CYBA_Y72], for which the enrichment score is inactive: 2.11.

Turning to DTLMEYLENPK [CYCS_Y68], the enrichment score is inactive: 0.972.

Another experiment deals with SHP2 N-SH2 domain wild-type. The description is as above. Particulars: peptide library: pTyr-Var.
Regarding LNNIIYRVERA [CUX2_Y1470], the enrichment score is inactive: 0.569.

KASIMYPSSNC [CXCL11_Y52_N55S]: the enrichment score was inactive: 0.733.

For the molecule DTLLEYLENPK [CYCS_Y68_M66L], the enrichment score is inactive: 1.14.

For GPIFRYDSGGA [CYP11B1_Y81_L83S], the enrichment score is inactive: 0.896.

Consider PFTRNYYVQAV [CYBA_Y87_R90Q], for which the enrichment score is inactive: 0.805.

Regarding PDSVDYRKKGF [CTSK_Y121_YF], the enrichment score is inactive: 0.672.

Take FSKTQYNQVPR [CXADR_Y318_S323R_YF]: the enrichment score was inactive: 0.734.

Take VKKKLDEEIDQ [CYP17A1_Y329_Y329D]: the enrichment score was inactive: 0.763.

With GQAPGYSFTAA [CYCS_Y47_YF], the enrichment score was inactive: 0.611.

For the molecule PDSVDYRKKGY [CTSK_Y121], the enrichment score is inactive: 0.667.

For the molecule PFTRNYFVWAV [CYBA_Y87_R90W_YF], the enrichment score was inactive: 1.55.

As for KASIMYPSNNC [CXCL11_Y52], the enrichment score was inactive: 0.755.

For the molecule SERNNYSRVAN [CWC22_Y797], the enrichment score is inactive: 0.527.

For RESYKYFPSSL [CXXC1_Y218], the enrichment score was inactive: 1.26.

With RESFKYLPSSL [CXXC1_Y218_F219L_YF], the enrichment score was inactive: 0.982.

As for NRVEIYDKTVE [CYFIP1_Y108_E109D], the enrichment score was inactive: 1.16.

On to PFTRNYFVRAV [CYBA_Y87_YF], for which the enrichment score is inactive: 0.425.

Regarding RWGQKYMTAVV [CYBA_Y72], the enrichment score is inactive: 2.

As for DTLMEYLENPK [CYCS_Y68], the enrichment score is inactive: 1.17.
